Data: PubChem BioAssay AID1634 (National Center for Advancing Translational Sciences (NCATS), 2009)
Screen size: about 260,000 compounds; about 150 (0.058%) were called active. Inconclusive means that the source gave no clear call. Such entries were picked first, then a sample of the others. The call rests on the fitted dose curve; in most records, active means well fitted inhibition curve with a large enough effect; inconclusive means small, poorly fitted or top-dose-only effect; inactive means no such curve, though single readings can be large or run the other way. No potency is given beside an inconclusive call; the fits are too rough.

What follows are compounds tested against Pyruvate kinase PKM (Homo sapiens) (UniProt P14618) (assay: qHTS Assay for Inhibitors of Human Muscle isoform 2 Pyruvate Kinase). Details: purified PKM2, ATP generation, Kinase-Glo luminescence; series mostly up to 57.5 µM.
Sequence of UniProt P14618 (P14618 whole entry, looked up, canonical isoform): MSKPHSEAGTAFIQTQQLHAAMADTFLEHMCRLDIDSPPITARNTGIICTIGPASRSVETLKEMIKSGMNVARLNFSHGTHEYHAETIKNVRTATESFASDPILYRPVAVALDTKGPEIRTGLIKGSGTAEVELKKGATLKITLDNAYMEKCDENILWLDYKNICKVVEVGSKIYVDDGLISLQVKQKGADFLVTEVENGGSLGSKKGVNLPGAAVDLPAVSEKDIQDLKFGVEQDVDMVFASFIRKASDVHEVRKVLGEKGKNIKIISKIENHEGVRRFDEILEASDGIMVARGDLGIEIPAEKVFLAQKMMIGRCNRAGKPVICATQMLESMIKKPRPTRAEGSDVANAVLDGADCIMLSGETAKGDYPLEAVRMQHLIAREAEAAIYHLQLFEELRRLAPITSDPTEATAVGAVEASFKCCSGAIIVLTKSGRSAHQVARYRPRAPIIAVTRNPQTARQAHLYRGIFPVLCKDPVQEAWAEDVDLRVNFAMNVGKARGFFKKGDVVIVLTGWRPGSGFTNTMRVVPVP
Protocol: NIH Chemical Genomics Center [NCGC] Matthew G. Vander Heiden, M.D., Ph.D. [Harvard Medical School, 77 Avenue Louis Pasteur, Boston, MA 02115] […] ATP generation was detected in a coupled reaction by luciferase-mediated luminescence, an ATP-dependent process. […] The enzyme was assayed at an intermediate level of activity to screen for both inhibitors and activators.
NCGC Assay Protocol Summary: Three uL of substrate mix (at r.t.) in assay buffer (50 mM Imidazole pH7.2, 50 mM KCl, 7 mM MgCl2, 0.01% Tween 20, 0.05% BSA) was dispensed into white solid bottom 1,536 well microtiter plates so that the final concentrations of substrates in the assay were 0.1 mM ADP and 0.5 mM PEP. 23 nL of compound were delivered by a pin tool and 1 uL of enzyme mix in assay buffer (4 degree Celsius) was added. Plates were incubated at room temperature for 1 hour. Two uL of detection mix (Kinase-Glo, Promega; at 4 degree Celsius protected from light) was added and luminescence read by a ViewLux (Perkin Elmer) at 5 second exposure/plate. Data were normalized to the uninhibited and AC100 inhibition (no enzyme). To monitor activation, the first column contained a titration of the activator, NCGC00031955-01 (16-point 1:2 dilutions in duplicate starting at 57 uM) and the first 16 rows of column 4 contained 57 uM of NCGC00031955-01.
Further: nearly all actives have a fitted effect of over 60% in size.
Potency means the concentration at half of the fitted maximal effect; tags describe the fitted curve by direction and shape.

Row | SMILES | Potency
1 | Cc1ccc(C(=O)n2c(N)nc3ccccc32)cc1 | inconclusive [falling, partial curve, poor fit]
2 | CCn1ccnc1CN1CCCC(C(=O)c2cc(C)c(OC)c(C)c2)C1 (stereo not given) | inactive
3 | CCCCC1C(=O)NC(=S)NC1=O | inconclusive [falling, single point]
4 | CN(C)C(=O)Oc1ccc(-c2cn3cc(Cl)ccc3n2)cc1 | inconclusive [falling, partial curve]
5 | Cn1c(SCC(=O)NCc2ccc(F)cc2)nc2ccccc21 | inconclusive [falling, single point]
6 | COc1cc(N2CCOCC2)ccc1/C=C1\C(=O)NC(=O)N(Cc2ccc3c(c2)OCO3)C1=O | inactive
7 | COc1ccc(OCC#CCN2CCCCCC2)cc1 | inconclusive [falling, single point]
8 | O=C(CSC1c2ccccc2-c2ccccc21)N/N=C/c1ccc(C(=O)O)cc1 | inconclusive [falling, single point]
9 | COC(=O)c1ccc(COC(=O)c2ccccn2)cc1 | inconclusive [falling, partial curve]
10 | CC[n+]1c(/C=C/C=C/c2ccc(N(C)C)cc2)sc2ccccc21 | inconclusive [falling, single point]
11 | CN(C)C(=O)Oc1ccc(Br)c2ccccc12 | inconclusive [falling, full curve, poor fit]
12 | CCN1/C(=C\C=C\C2=[N+](CC)c3ccccc3C2(C)C)C(C)(C)c2ccccc21 | inconclusive [falling, partial curve]
13 | O=C(c1cc(=O)[nH]c2ccc(Br)cc12)N1CCC2(CC1)OCCO2 | inconclusive [falling, single point]
14 | COc1ccc(C(=O)Nc2cc(Cl)ccc2C(=O)O)cc1 | inconclusive [falling, single point]
15 | CNC(=O)Oc1cccc(-c2cn3cc(Cl)ccc3n2)c1 | inconclusive [falling, partial curve]
16 | O=C(O)[C@H]1NC[C@H]2C[C@H]21 | inconclusive [falling, partial curve]
17 | C[N+](C)(C)CCc1ccc(O)cc1 | inconclusive [falling, single point]
18 | Cc1ccc(N=Nc2cc(C)ccc2N)cc1 | inconclusive [falling, partial curve]
19 | O=C1c2ccccc2C(=O)N1SC1CCCCC1 | inactive
20 | CC(=NCc1ccc2c(c1)OCO2)c1c(O)n(Cc2ccccc2)c(=O)[nH]c1=O | inactive
